First the molecules themselves.
B1: glmS ribozyme (parent)
chain: AUAAAAGCGCCAGAACUACAGAAAUGUAGUUGACGAGGAGGAGGUUUAUCGAAUUUUCGGCGGAUGCCUCCAAA

± gives the standard error. This sample is rich in variants without activity.

Holding throughout (details): with glucosamine-6-phosphate
The variants in series [1] derive from B1. The series can be described thus: self-cleavage kobs at 40 uM GlcN6P; higher = faster cleavage; RNA array. The gist of the method: (§1)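 Barcoded ribozyme variants on sequenced MiSeq chips were transcribed in situ by E. coli RNA polymerase and followed at 37 °C through a hybridised Cy3 probe. Glucosamine-6-phosphate at 40 μM to 10 mM in HEPES/KCl/Mg(OAc)2 buffer was flowed in, and tiles were imaged over ~14 h. Signals were normalised to baseline and to non-cleaving reference variants, and per-tile medians were fit to one- or two-exponential decays to give kobs. Weighted Michaelis–Menten fits across concentrations gave kcat and KM.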

Series [2] covers variants of B1. The series can be described thus: self-cleavage kobs at 640 uM GlcN6P; higher = faster cleavage; RNA array. The gist of the method: as §1
In series [3] the parent is B1. Kind of series: self-cleavage kobs at 160 uM GlcN6P; higher = faster cleavage; RNA array. The method, boiled down:
as §1

Variants of B1 are the subject of series [4]. Kind of series: self-cleavage kobs at 2500 uM GlcN6P; higher = faster cleavage; RNA array. The method, boiled down: as §1
Variants of B1 are the subject of series [5]. The series can be described thus: self-cleavage kobs at 10000 uM GlcN6P; higher = faster cleavage; RNA array. The gist of the method:
as §1

Regarding A14U G29U, the “self-cleavage kobs at 40 uM GlcN6P” value in series [1] was found to be 2.02e-05 ± 9.5e-06 s⁻¹. The “self-cleavage kobs at 640 uM GlcN6P” value in series [2] turned out to be 0.000104 ± 9.7e-06 s⁻¹. In series [3], the “self-cleavage kobs at 160 uM GlcN6P” value was determined as 3.57e-05 ± 7.2e-06 s⁻¹. In addition, in series [4], the “self-cleavage kobs at 2500 uM GlcN6P” value was 0.000222 ± 2e-05 s⁻¹. In addition, the “self-cleavage kobs at 10000 uM GlcN6P” value in series [5] was 0.000381 ± 3.2e-05 s⁻¹.
For G13C U46A C50U, the “self-cleavage kobs at 40 uM GlcN6P” value in series [1] is less than 1e-05 s⁻¹.
For G13U G41U G59U G63C U65G U69C, the “self-cleavage kobs at 40 uM GlcN6P” value in series [1] was less than 1e-05 s⁻¹. For the same variant, the “self-cleavage kobs at 640 uM GlcN6P” value in series [2] is less than 1e-05 s⁻¹. In addition, the “self-cleavage kobs at 2500 uM GlcN6P” value in series [4] was less than 1e-05 s⁻¹. Further, in series [5], the “self-cleavage kobs at 10000 uM GlcN6P” value is less than 1e-05 s⁻¹.
For the variant A14C G60U C71G, the “self-cleavage kobs at 40 uM GlcN6P” value in series [1] is less than 1e-05 s⁻¹. The “self-cleavage kobs at 10000 uM GlcN6P” value in series [5] is less than 1e-05 s⁻¹.
Consider A14U G60U, for which, in series [1], the “self-cleavage kobs at 40 uM GlcN6P” value was less than 1e-05 s⁻¹. Besides, in series [2], the “self-cleavage kobs at 640 uM GlcN6P” value is less than 1e-05 s⁻¹. For the same variant, the “self-cleavage kobs at 160 uM GlcN6P” value in series [3] is less than 1e-05 s⁻¹. In series [4], the “self-cleavage kobs at 2500 uM GlcN6P” value was less than 1e-05 s⁻¹. Further, in series [5], the “self-cleavage kobs at 10000 uM GlcN6P” value was less than 1e-05 s⁻¹.
As to A14C U54G, in series [1], the “self-cleavage kobs at 40 uM GlcN6P” value came out at 0.00011 ± 1.7e-05 s⁻¹. Besides, the “self-cleavage kobs at 640 uM GlcN6P” value in series [2] amounted to 0.00107 ± 0.00016 s⁻¹. The “self-cleavage kobs at 160 uM GlcN6P” value in series [3] was 0.000219 ± 3.6e-05 s⁻¹. Moreover, in series [4], the “self-cleavage kobs at 2500 uM GlcN6P” value amounted to 0.00296 ± 0.00041 s⁻¹. For the same variant, the “self-cleavage kobs at 10000 uM GlcN6P” value in series [5] stood at 0.00448 ± 0.00056 s⁻¹.
For A15G A36G G44U, in series [1], the “self-cleavage kobs at 40 uM GlcN6P” value was less than 1e-05 s⁻¹.
Still for that read-out and setting: then G13U U47C, with less than 1e-05 s⁻¹.
Turning to A15G C67U, in series [1], the “self-cleavage kobs at 40 uM GlcN6P” value was determined as 0.000329 ± 5.2e-05 s⁻¹. Also, the “self-cleavage kobs at 640 uM GlcN6P” value in series [2] is 0.00169 ± 0.00028 s⁻¹. Moreover, the “self-cleavage kobs at 160 uM GlcN6P” value in series [3] was 0.000674 ± 0.00013 s⁻¹. Further, the “self-cleavage kobs at 2500 uM GlcN6P” value in series [4] was 0.00538 ± 0.0014 s⁻¹. In addition, in series [5], the “self-cleavage kobs at 10000 uM GlcN6P” value amounted to 0.00828 ± 0.0017 s⁻¹.
Take A14C A39C G40U U55A: the “self-cleavage kobs at 40 uM GlcN6P” value in series [1] is less than 1e-05 s⁻¹. For the same variant, the “self-cleavage kobs at 10000 uM GlcN6P” value in series [5] is less than 1e-05 s⁻¹.
On to A14C G63C, for which the “self-cleavage kobs at 40 uM GlcN6P” value in series [1] is less than 1e-05 s⁻¹. The “self-cleavage kobs at 160 uM GlcN6P” value in series [3] was less than 1e-05 s⁻¹. For the same variant, the “self-cleavage kobs at 10000 uM GlcN6P” value in series [5] was less than 1e-05 s⁻¹.
For A15G U57C, the “self-cleavage kobs at 40 uM GlcN6P” value in series [1] is less than 1e-05 s⁻¹.
As to C16A C70U, in series [1], the “self-cleavage kobs at 40 uM GlcN6P” value worked out at 5.31e-05 ± 7.6e-06 s⁻¹. In series [2], the “self-cleavage kobs at 640 uM GlcN6P” value was 0.000192 ± 2.7e-05 s⁻¹. The “self-cleavage kobs at 160 uM GlcN6P” value in series [3] worked out at 0.000117 ± 3.3e-05 s⁻¹. Moreover, in series [4], the “self-cleavage kobs at 2500 uM GlcN6P” value came to 0.000365 ± 5.1e-05 s⁻¹. Besides, in series [5], the “self-cleavage kobs at 10000 uM GlcN6P” value amounted to 0.0015 ± 0.00026 s⁻¹.
The corresponding values for A15C U31A are 0.000156 ± 2.2e-05 s⁻¹, 0.0015 ± 0.00035 s⁻¹, 0.000607 ± 0.00013 s⁻¹, 0.00303 ± 0.00078 s⁻¹ and 0.0067 ± 0.001 s⁻¹.
As for A15C G32U A42U, in series [1], the “self-cleavage kobs at 40 uM GlcN6P” value is less than 1e-05 s⁻¹. Also, the “self-cleavage kobs at 10000 uM GlcN6P” value in series [5] was less than 1e-05 s⁻¹.
With A14C A36G G60U C71U, the “self-cleavage kobs at 40 uM GlcN6P” value in series [1] is less than 1e-05 s⁻¹.
A15U U47A: the “self-cleavage kobs at 40 uM GlcN6P” value in series [1] is 0.00015 ± 3.6e-05 s⁻¹. Further, the “self-cleavage kobs at 640 uM GlcN6P” value in series [2] worked out at 0.000846 ± 0.00036 s⁻¹. Also, the “self-cleavage kobs at 160 uM GlcN6P” value in series [3] came to 0.000273 ± 6.7e-05 s⁻¹. Besides, the “self-cleavage kobs at 2500 uM GlcN6P” value in series [4] was 0.00263 ± 0.00057 s⁻¹. Moreover, in series [5], the “self-cleavage kobs at 10000 uM GlcN6P” value was found to be 0.00356 ± 0.0009 s⁻¹.
In the case of A15C G38U G41A, the “self-cleavage kobs at 40 uM GlcN6P” value in series [1] was less than 1e-05 s⁻¹. The “self-cleavage kobs at 10000 uM GlcN6P” value in series [5] is less than 1e-05 s⁻¹.
A14C A36U G66U: in series [1], the “self-cleavage kobs at 40 uM GlcN6P” value was less than 1e-05 s⁻¹. For the same variant, in series [2], the “self-cleavage kobs at 640 uM GlcN6P” value was less than 1e-05 s⁻¹. For the same variant, the “self-cleavage kobs at 160 uM GlcN6P” value in series [3] is less than 1e-05 s⁻¹. Moreover, the “self-cleavage kobs at 10000 uM GlcN6P” value in series [5] was less than 1e-05 s⁻¹.
As for G13U G44U G59U, the “self-cleavage kobs at 40 uM GlcN6P” value in series [1] is less than 1e-05 s⁻¹.
A15U G29C G35A G40A: in series [1], the “self-cleavage kobs at 40 uM GlcN6P” value is less than 1e-05 s⁻¹. The “self-cleavage kobs at 640 uM GlcN6P” value in series [2] is less than 1e-05 s⁻¹.
Consider A15U G43U A48G G59U C67G, for which the “self-cleavage kobs at 40 uM GlcN6P” value in series [1] is less than 1e-05 s⁻¹. Also, the “self-cleavage kobs at 10000 uM GlcN6P” value in series [5] is less than 1e-05 s⁻¹.

The values above are taken from the supplement of paper PMC7125110.
